# Paper PMC4336329 (PLoS ONE, 2015)
# Screen size: about 310,000 compounds; about 2,200 (0.71%) showed an effect of 50% or more. The effect is printed as a negative number. Some of the results follow.
# Molecular target: human ether-à-go-go-related gene (hERG) potassium channel (human, UniProt Q12809)
# Assay: primary screen, population patch clamp on CHO cells stably expressing hERG
# Sequence of human ether-à-go-go-related gene (hERG) potassium channel (Q12809 whole entry, looked up): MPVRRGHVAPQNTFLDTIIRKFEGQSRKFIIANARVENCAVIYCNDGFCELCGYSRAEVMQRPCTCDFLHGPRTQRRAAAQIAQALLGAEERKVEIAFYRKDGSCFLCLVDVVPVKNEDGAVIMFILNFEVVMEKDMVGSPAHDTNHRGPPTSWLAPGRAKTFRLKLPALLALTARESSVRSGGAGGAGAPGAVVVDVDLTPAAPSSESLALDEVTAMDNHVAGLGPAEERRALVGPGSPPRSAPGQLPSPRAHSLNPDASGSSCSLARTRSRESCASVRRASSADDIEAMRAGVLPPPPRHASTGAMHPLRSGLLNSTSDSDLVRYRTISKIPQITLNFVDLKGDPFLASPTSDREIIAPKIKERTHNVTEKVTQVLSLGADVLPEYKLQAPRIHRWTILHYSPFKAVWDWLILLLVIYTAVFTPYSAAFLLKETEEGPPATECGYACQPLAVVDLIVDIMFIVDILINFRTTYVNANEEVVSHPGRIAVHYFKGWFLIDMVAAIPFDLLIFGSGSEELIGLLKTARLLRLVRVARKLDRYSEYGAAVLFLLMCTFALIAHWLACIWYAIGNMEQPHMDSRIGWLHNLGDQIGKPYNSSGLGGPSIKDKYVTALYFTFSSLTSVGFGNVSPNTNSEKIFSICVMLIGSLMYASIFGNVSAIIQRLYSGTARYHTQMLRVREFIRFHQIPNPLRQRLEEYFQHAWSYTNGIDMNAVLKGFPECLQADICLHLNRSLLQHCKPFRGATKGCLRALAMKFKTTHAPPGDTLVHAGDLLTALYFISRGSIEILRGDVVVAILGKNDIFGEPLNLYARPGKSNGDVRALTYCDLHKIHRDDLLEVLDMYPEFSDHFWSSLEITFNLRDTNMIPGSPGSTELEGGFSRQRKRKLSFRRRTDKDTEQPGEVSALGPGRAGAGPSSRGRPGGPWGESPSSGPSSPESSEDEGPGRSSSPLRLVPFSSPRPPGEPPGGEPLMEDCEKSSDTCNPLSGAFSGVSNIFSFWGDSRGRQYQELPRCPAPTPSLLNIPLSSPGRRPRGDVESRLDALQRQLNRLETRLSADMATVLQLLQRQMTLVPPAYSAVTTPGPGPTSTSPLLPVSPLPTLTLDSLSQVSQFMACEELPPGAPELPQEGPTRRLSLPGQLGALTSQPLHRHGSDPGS
row,SMILES,"hERG current change (%, negative = inhibition) at 1uM [%]"
1,O=C(Nc1cnccn1)Nc1cccc(Cl)c1Cl,17.4
2,COc1ccc(C)cc1-n1nnnc1SCC(=O)N1CCC(C(=O)Nc2nccs2)CC1,8.77
3,CSc1cccc(NC(=S)NC(=O)CCc2ccccc2)c1,15.8
4,CCC(=O)N1CCc2cc(S(=O)(=O)NCCC(=O)N3CCN(c4ccccn4)CC3)ccc21,-2.58
5,CC(=O)N1CCN(CC(O)Cn2c3ccccc3c3ccccc32)CC1 (stereo not drawn),11.6
6,O=C(O)c1ccc(S(=O)(=O)N2CCCCCC2)cc1,5.84
7,CCc1nnc(NS(=O)(=O)c2ccc(N3C(=O)c4ccccc4C3=O)cc2)s1,11.4
8,O=C(c1ccccc1)[C@@H]1[C@@H](C(=O)c2ccc(F)cc2)[C@@]2(C(=O)Nc3ccccc32)[C@H]2c3ccccc3C=CN12,11.4
9,CCN1C(=O)/C(=C/C2=Cc3ccccc3OC2C)SC1=S (stereo not drawn),12.2
10,Cc1ccc(S(=O)(=O)Nc2ccncc2)c(C)c1N(C)S(=O)(=O)c1ccc(F)cc1,10.8
11,COc1cc(NC(C(=O)Nc2cccc(C(C)=O)c2)c2ccccc2)cc(OC)c1OC (stereo not drawn),1.42
12,Cc1ccnc(NC(=O)c2ccccc2NC(=O)c2ccc(Cl)cc2Cl)c1,12.4
13,Cc1ccc(S(=O)(=O)NC(C)CCc2ccccc2)cc1C(N)=O (stereo not drawn),11.2
14,Cn1nnnc1SCC(=O)Nc1nc2c(s1)CCCC2,3.15
15,CCCCN1CCNC[C@@H]1Cc1ccc(O)cc1,13.1
16,Cc1cc(N2CCCC2=O)ccc1S(=O)(=O)N1CCOCC1,7.76
17,COc1ccc(-n2ncc3c(=O)n(CC(=O)OCc4ccccc4)cnc32)cc1,9.3
18,Cc1cc(NC(=O)CSc2nnc(Nc3ccccc3C)s2)no1,5.94
19,COc1ccc(Nc2nc(N)nc(CSc3nccc(C)n3)n2)cc1,9.07
20,Cc1ccc(CCNS(=O)(=O)c2ccc3c(c2)NC(=O)CCS3)cc1,10.8
21,CC(C)CCn1c(=O)c2ccccc2n2c(CCC(=O)NCC3CCCO3)nnc12 (stereo not drawn),11.4
22,CCN(CC(=O)Nc1ccccc1OC)C(=O)C1CC2C=CC1C2 (stereo not drawn),18.7

row,SMILES,"hERG current change (%, negative = inhibition) at 1uM [%]"
1,Cc1nn(Cc2ccccc2Cl)c(C)c1C(=O)NCc1ccco1,2.29
2,COCCNC(=O)Cn1c(=O)oc2cc(S(=O)(=O)N3CC(C)CC(C)C3)ccc21 (stereo not drawn),8.05
3,COc1ccccc1Nc1nc(Cl)nc(NC(C)(C)C)n1,5.36
4,c1cncc(C2OCC3(CO2)COC(c2cccnc2)OC3)c1 (stereo not drawn),11.8
5,CCS(=O)(=O)c1nc(S(=O)(=O)c2ccc(C)cc2)c(NCCCN2CCCC2=O)s1,7.18
6,Cc1cc(NC(=O)c2noc3c2CCCC3)nn1Cc1ccc(Cl)cc1,8.36
7,CN(C(=O)c1ccco1)c1nc2c(s1)CCCC2,-4.05
8,CS(=O)(=O)c1ccc(Sc2nc3ccccc3s2)c([N+](=O)[O-])c1,11.2
9,COc1ccccc1C1CC(=O)n2c(nc(-c3ccccc3)c2-c2ccccc2)S1 (stereo not drawn),8.55
10,Cc1cc(C)c(C(=O)OCc2csc(CC(=O)Nc3ccccc3C)n2)c(C)c1,-13.3
11,CCOC(=O)/C=C1\SCC(=O)N1CC(=O)NC1CCCCC1,-1.7
12,O=S1(=O)CCOC[C@H](Cc2ccccc2)N1Cc1cccc(Cl)c1,6.92
13,CCOC(=O)c1c(NC(=S)NC(=O)c2cnn(CC)c2)sc2c1CCC(C)C2 (stereo not drawn),3.84
14,CCNC(=O)CSc1nc2ccccc2c(=O)n1-c1cc(OC)ccc1OC,6.92
15,Cc1sc(NC(=O)CSC2=NCCS2)nc1-c1ccccc1,11.1
16,O=C(NCC(c1ccco1)N1CCc2ccccc2C1)c1ccccc1Br (stereo not drawn),-3.03
17,CC(C)[C@H](NC(=O)c1cccc(S(=O)(=O)N2CCCC2)c1)c1nc2ccccc2[nH]1,6.51
18,O=C(O)[C@@H]1CCCN1C(=O)c1ccco1,9.78
19,C=CCCC(=O)Nc1nc(C)c(-c2csc(Nc3cccc(OC)c3)n2)s1,-16.1
20,Cc1ccc(-c2ccc(SCC(=O)Nc3ccc4c(c3)OCCO4)nn2)cc1,9.42
21,NC(=O)c1ccc(NC(=O)CS(=O)(=O)c2cn(CC(=O)N3CCCC3)c3ccccc23)cc1,4.57
22,CC(OC(=O)Cc1coc2ccc3ccccc3c12)C(=O)NC(N)=O (stereo not drawn),12.9

row,SMILES,"hERG current change (%, negative = inhibition) at 1uM [%]"
1,Fc1ccc(NC(=S)N/N=C/c2ccc(F)c(F)c2)c(F)c1,8.77
2,Cc1ccc(NC(=O)c2ccccc2Cl)cc1-n1cnnn1,-7
3,O=C(Cn1c(C2CC2)nc2ccccc2c1=O)Nc1ccc(Br)cc1,12.9
4,CN(C(=O)Oc1ccc([N+](=O)[O-])cc1)c1ccccc1,5.63
5,N#CCCn1cc(C(=O)Nc2ccc(C(=O)O)cc2)c(-c2ccc([N+](=O)[O-])cc2)n1,16
6,COc1ccccc1NS(=O)(=O)c1ccc(C(=O)N2CCCC(C)C2)cc1 (stereo not drawn),8.59
7,CC(C)(CN1CCCCC1)NS(=O)(=O)c1ccc(Cl)cc1,-3.53
8,COC(=O)c1cc(OC)c(OC)cc1N1C(=O)CC(C)(C)CC1=O,16.8
9,COc1ccccc1OCCNC(=O)CC(NC(C)=O)c1ccccc1 (stereo not drawn),18.3
10,CCCCn1c(N)c(N(CCOC)C(=O)C2CC(=O)N(Cc3ccc(C)cc3)C2)c(=O)[nH]c1=O (stereo not drawn),-17.6
11,O=C(CSc1nnc(NC2CCCCC2)s1)NC1CCS(=O)(=O)C1 (stereo not drawn),1.91
12,CCOc1ccccc1C(=O)Nc1cc(C)ccc1NC(=O)c1ccco1,-3.46
13,CCN(CC(=O)Nc1ccccc1C(F)(F)F)C(=O)CSCc1ccc(C)cc1,14
14,CC(C(=O)O)N(C(=O)c1ccccc1)c1ccc(F)c(Cl)c1 (stereo not drawn),14.1
15,O=S(=O)(Cc1cc(-c2ccccc2)no1)c1ccccc1,3.83
16,O=C(OCc1ccccc1Cl)C1CC(=O)N(Cc2ccco2)C1 (stereo not drawn),19.9
17,CCS(=O)(=O)N1Cc2ccccc2CC1C(=O)N(C)CC(=O)Nc1ccc(F)c(F)c1F (stereo not drawn),15.3
18,COc1cccc(OCc2cc(/C=N/NC(=O)c3ccn[nH]3)ccc2OC)c1,0.0878
19,Cc1ccc(NC(=O)C2CCCN(S(=O)(=O)c3cccs3)C2)cc1 (stereo not drawn),6.25
20,COc1ccc(CN2CCC(C(=O)c3ccc(Cl)cc3)CC2)cc1,-80.9
21,O=C(Nc1ccccc1)c1ccccc1O,20.3
22,COc1ccc(C(=O)O)c(OC)n1,5.36

row,SMILES,"hERG current change (%, negative = inhibition) at 1uM [%]"
1,O=S(=O)(c1ccc(Cl)cc1)N1CCN(S(=O)(=O)N2CCCCCC2)CC1,8.07
2,COc1ccc(CCN(Cc2cc3cc(C)cc(C)c3nc2Cl)C(=O)C2CC2)cc1,14.6
3,Cc1ccsc1/C=N/Nc1cccc(C(=O)O)c1,-2.31
4,Cc1c(C)n(CCCN(C)C)c2ncnc(Nc3ccccc3)c12,5.94
5,CCCCC1=CC2=C(c3ccco3)C(=O)C(C)(OC(=O)c3ccc(OC)cc3)C(=O)C2=CN1C1CCCC1 (stereo not drawn),14.8
6,CCCOc1ccc(/C(O)=C2/C(=O)C(=O)N(CCCn3ccnc3)C2c2cccs2)cc1 (stereo not drawn),18.1
7,O=C1COc2ccc(C(=O)COC(=O)C3CCN(S(=O)(=O)c4cccs4)CC3)cc2N1,-4.83
8,COc1ccccc1C(=O)COC(=O)c1cccc(S(=O)(=O)N2CCCC2)c1,9.99
9,O=C(CCOc1ccccc1)Nc1ccc(S(=O)(=O)N2CCCC2)cc1,1.8
10,Oc1ccc(Cl)cc1CNc1nccs1,15.1
11,O=C(CSc1ccc(-c2cccc([N+](=O)[O-])c2)nn1)N1CCCCC1,10.9
12,COc1ccc(C2=NN(c3ccc(C=O)cc3)C(c3ccccc3)C2)cc1 (stereo not drawn),19.7
13,CCOc1cc(/C=C2\C(=N)N3N=C(S(=O)(=O)CC)SC3=NC2=O)ccc1OC(=O)c1ccco1,16.2
14,CN(C(=O)CSc1nnnn1-c1ccccc1)C1CCCCC1,0.0266
15,CC(C)(C)C(=O)O/N=C(\N)c1ccc(-c2csnn2)cc1,13.8
16,COc1ccc(C2OCC3(CO2)SC(=O)NC3=O)cc1OC (stereo not drawn),9.03
17,COCCNC(=O)C(c1ccc(F)cc1)N(Cc1ccco1)C(=O)CCC(=O)Nc1nccs1 (stereo not drawn),6.71
18,CCOC(=O)C1CCCN(C(=O)c2ccc(C)c(S(=O)(=O)N3CCCCC3)c2)C1 (stereo not drawn),-2.16
19,Cn1c2c(c(=O)n(C)c1=O)C(CC(=O)Nc1ccc(F)cc1)C(=O)N2 (stereo not drawn),1.61
20,CCS(=O)(=O)N1CCC(C(=O)Nc2ccc3c(c2)CCC3)CC1,-1.82
21,N#Cc1sc2nc3c(c(-c4cccnc4)c2c1N)CCC3,-10.6
